The record followed here is ChEMBL document CHEMBL1201862, “PubChem BioAssay data set” (2004).

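Cells were grown in 96-well plates and exposed to each compound for 48 hours at five concentrations; endpoints were interpolated linearly between bracketing concentrations, or set to the highest concentration if not reached. GI50 = concentration required for 50% inhibition of growth.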 Active and inactive are the calls of the source. Rule as the data show it: active = GI50 up to about 1.1 µM and inactive = higher.

This assay deals with NCI-H322M. As to the kind of experiment: growth of human tumour cells (NCI), 48 h.
Take `Cn1c(=O)c2c(O)cc(N)nc2n(C)c1=O`: the GI50 is inactive: > 100 µM.

As for `COc1cccc(CCn2c(N)c(C(=O)O)c3ccc([N+](=O)[O-])cc3c2=O)c1`, the GI50 was inactive: 48.1 µM.

As for `COc1cccc2c1C(=O)c1ccc3cc(CCl)cc(O)c3c1C2=O`, the GI50 was active: 0.457 µM.

`O=c1[nH]nc(Cc2ccc([N+](=O)[O-])cc2)n1CCO`: the GI50 is inactive: > 100 µM.

Regarding `N=C(N)Nc1nc2cc(N)ccc2o1`, the GI50 is inactive: > 100 µM.

In the case of `C=CCCN1CCc2c([nH]c3ccccc23)C1C(=O)O` (stereo unspecified), the GI50 is inactive: > 100 µM.

Turning to `CN(O)C(=O)c1cccc(Cl)c1`, the GI50 is inactive: > 100 µM.

Take `C/C(=N\c1ccc(Cl)cc1)c1ccncc1`: the GI50 is inactive: > 100 µM.

With `COc1ccc(N2C(=O)C3ON(C(C(N)=O)c4ccccc4)C(c4ccc(-c5ccccc5)cc4)C3C2=O)cc1` (stereo unspecified), the GI50 is inactive: > 50 µM.

`COC(=O)c1ccc(Nc2nc3[nH]cnc3c(=O)[nH]2)cc1`: the GI50 was inactive: 88.1 µM.

`COC(=O)C(C(=O)Cc1ccccc1[N+](=O)[O-])C(=O)OC`: the GI50 is inactive: > 100 µM.

Consider `O=C(/C=C/c1ccccc1)CSc1nc[nH]n1`, for which the GI50 is inactive: > 100 µM.

Consider `CC1(C)C=N[N+]2(C)C3C=CC(CC3)C12` (stereo unspecified), for which the GI50 is inactive: > 10 µM.

Turning to `C[N+]1([O-])CCC(O)(C2CC2)CC1` (stereo unspecified), the GI50 was inactive: > 100 µM.

Regarding `O=C1N=C(c2ccccc2)O/C1=C\c1ccccc1`, the GI50 was inactive: > 100 µM.

For the compound `CCC(=O)NCC1(c2c[nH]c3ccccc23)SCCS1`, the GI50 is inactive: > 100 µM.

Take `COc1c(/C=C/C(C)(C)O)cc(C2CC(=O)c3c(O)cc(O)cc3O2)cc1CC=C(C)C` (stereo unspecified): the GI50 was inactive: 8.83 µM.

Turning to `C/C(CC(=O)Nc1cc(Cl)c(Cl)cc1Cl)=N\NS(=O)(=O)c1ccc(C)cc1`, the GI50 is inactive: 54.7 µM.

Regarding `CCCC/C=C1\CCC(C)(CN(C)C)C1=O` (stereo unspecified), the GI50 was inactive: > 100 µM.

Turning to `CCN(CC)c1ccc(NC(=S)NN(C)C)cc1`, the GI50 was inactive: > 10 µM.

Consider `COc1cc(/C=C/C(=O)c2sc(Nc3ccccc3)nc2C)ccc1O`, for which the GI50 was inactive: 43.9 µM.

With `O=[N+]([O-])c1cccc(/N=C2\c3ccccc3CN2c2cccc([N+](=O)[O-])c2)c1`, the GI50 is inactive: > 100 µM.

Take `CC1(C)C(=O)C(C)(C)C1=NNC(N)=S`: the GI50 was inactive: > 100 µM.

For `CC(CS(=O)(=O)Cc1ccccc1)C(N)=O` (stereo unspecified), the GI50 was inactive: > 100 µM.

In the case of `CCn1c(=O)c2cn[nH]c2n(C)c1=O`, the GI50 is inactive: > 100 µM.

With `Cc1ccc(Cl)c2c(=O)c3ccc(N)cc3sc12`, the GI50 was inactive: 25.1 µM.

Regarding `CC(=O)N1N=C(c2cc(C)ccc2O)CC1c1cccc(Cl)c1` (stereo unspecified), the GI50 was inactive: 24.8 µM.

As to `CSC(C1c2ccccc2N(C)c2[nH]c(=O)n(C)c(=O)c21)S(=O)(=O)c1ccc(C)cc1` (stereo unspecified), the GI50 was inactive: 54.1 µM.

For the compound `COc1c2ccccc2c(OC)c2nc(C)ccc12`, the GI50 is inactive: > 100 µM.

With `CSc1c(C#N)c(S)n(-c2ccc(Cl)cc2)c(=O)c1C#N`, the GI50 was inactive: > 100 µM.

On to `COC(=O)N/N=C(/CCC(=O)Nc1ccc(C)c(C)c1)CC(=O)C(C)(C)C`, for which the GI50 is inactive: > 100 µM.

`Nc1nc(Cl)cc(NCC2(CO)CC(CCCCc3ccccc3)C2)n1` (stereo unspecified): the GI50 was inactive: 92.9 µM.

For `COC(=O)c1cc(O)c(O)c(O)c1-c1c(O)c(O)c(O)c(SC[C@H](NC(=O)OCc2ccccc2)C(=O)OCc2ccccc2)c1C(=O)OC`, the GI50 was inactive: 30 µM.

Regarding `COC(=O)/C=C1/OC(c2ccc(Br)cc2)=C(Br)C1=O`, the GI50 is inactive: 15.1 µM.

In the case of `C=C1CN2CCc3c([nH]c4ccccc34)C2CC1CC(=O)N(C)C` (stereo unspecified), the GI50 is inactive: > 309 µM.

With `Nc1nc(Cl)c(N)c(NCC2(CO)CC(O)C2)n1` (stereo unspecified), the GI50 is inactive: > 100 µM.

Regarding `Brc1ccc2c(c1)[C@H]1CCc3c([nH]c4ccccc34)[C@H]1N2`, the GI50 was inactive: 11.1 µM.

As to `C#CC1(O)C(COP(=O)(O)OCC2OC(n3ccc(NCCCCCCCCCCCCCCCCCC)nc3=O)C(O)C2O)OC(n2ccc(N)nc2=O)C1O` (stereo unspecified), the GI50 was active: 0.824 µM.

Regarding `CC1(C)C(=NN=C(N)N)C(C)(C)C1=NN=C(N)N`, the GI50 was inactive: > 100 µM.

For the compound `CN(C)c1ccc2c(NCCCCCCNc3ccnc4cc(N(C)C)ccc34)ccnc2c1`, the GI50 is inactive: 19 µM.

On to `Nc1ncnc2c1ncn2[C@@H]1O[C@H](COC(c2ccccc2)(c2ccccc2)c2ccccc2)[C@@H](OC(=S)Oc2ccccc2)[C@@H]1F`, for which the GI50 is inactive: 16 µM.

In the case of `COc1ccc(C(CC(=O)C(C)(C)CN2CCCCC2)SCCS(=O)(=O)O)cc1` (stereo unspecified), the GI50 was inactive: 38 µM.

For `Cc1nc2c(Br)cc(Br)cc2c(=O)n1-c1ccccc1NC1OC(CO)C(O)C(O)C1O` (stereo unspecified), the GI50 was inactive: > 100 µM.

With `O=C1C(Cl)C(c2cc(Br)cc(Br)c2O)N1n1cnc2ccccc2c1=O` (stereo unspecified), the GI50 is inactive: 15.2 µM.

In the case of `Clc1ccc(CNc2nc3ccccc3nc2-c2cccs2)c(Cl)c1`, the GI50 was inactive: > 100 µM.

On to `C=CCOC(=O)/C(=C\c1ccc(OC)c(OC)c1)c1ccc(OC)c(OC)c1`, for which the GI50 was inactive: > 100 µM.

Consider `CC(=O)NC1=C(NCCO)C(=O)c2ccccc2C1=O`, for which the GI50 was inactive: > 50 µM.

As to `Cc1ccc(S(=O)(=O)Nn2c(-c3ccccc3)c(C#N)c(-c3ccc([N+](=O)[O-])cc3)c(C#N)c2=O)cc1`, the GI50 is inactive: > 100 µM.

Turning to `O=C(CCc1ccccc1)ON1C(=S)C(c2ccccc2)(c2ccccc2)N=C1Sc1ccccc1`, the GI50 is inactive: 61.1 µM.

Take `CSC(=S)Nc1cc(C)cc(C)n1`: the GI50 is inactive: > 31.6 µM.

For `CC1=C(C(=O)OCCc2ccc([N+](=O)[O-])cc2)C(c2ccccc2[N+](=O)[O-])C(C(=O)OC(C)C)=C(C)N1` (stereo unspecified), the GI50 was inactive: 35.8 µM.

As to `Cc1c2cnccc2c(C)c2c1c1ccccc1n2CC1CO1` (stereo unspecified), the GI50 is inactive: 1.54 µM.

For `O=C1Nc2ccccc2/C1=C1/Nc2ccccc2/C1=N\OCCNCC(O)C(O)C(O)C(O)CO` (stereo unspecified), the GI50 is inactive: 17.9 µM.

For the compound `COC(=O)c1ccccc1CC1Cc2ccc3c(c2C1)CCC3` (stereo unspecified), the GI50 is inactive: 34.3 µM.

For `Cc1cc(=O)n2c3c(c4c(cc13)c(CN(C)C)cc(=O)n4C)OC2`, the GI50 is inactive: 16.6 µM.

On to `CN1CCc2c(sc3ncn(Nc4ccc(Cl)cc4)c(=N)c23)C1`, for which the GI50 was inactive: > 100 µM.

Take `CSc1ncc2c(C#N)c3sc4ccccc4n3c(=O)c2n1`: the GI50 was inactive: > 100 µM.

As to `CC[P+](C)(Cc1ccccc1)c1ccccc1.O=C(OC(C(=O)[O-])C(OC(=O)c1ccccc1)C(=O)O)c1ccccc1` (stereo unspecified), the GI50 is inactive: > 100 µM.

Consider `CC(C)CCC[C@@H](C)C1CCC2[C@@H]3CC=C4C[C@@H](C(=O)NCCN(C)C)CC[C@]4(C)C3CC[C@@]21C` (stereo partly specified), for which the GI50 was inactive: 39.4 µM.

Take `CC1=C(C)C(=O)C(C2=C(C3=CC(=O)C(C)=C(C)C3=O)C(=O)C(C)=C(C)C2=O)=CC1=O`: the GI50 was inactive: 22.4 µM.

With `C=CCNC(=S)N/C=C(\C(=O)OCC)C(=O)C(=O)OCC`, the GI50 was inactive: > 100 µM.

With `COC(=O)[C@]1(C)[C@H]2C[C@H]3O[C@H]4[C@H](O)[C@@H](O)OC(CC(O)C(C5=CC(=O)OC5)C(C5=CC(=O)OC5)C(O)CC56CCCCC7[C@@H](C)[C@H](C[C@H]8[C@](C)(C(=O)OC)[C@H](O)CC[C@]78C)O[C@H]([C@@H](O)[C@H](O)O5)[C@H]6O)(CCCCC([C@@H]3C)[C@]2(C)CC[C@@H]1O)[C@H]4O` (stereo partly specified), the GI50 was active: 0.0476 µM.

For `CC(C)(C)S(=O)OC12CC3CC(CC(C3)C1)C2` (stereo unspecified), the GI50 was inactive: > 100 µM.

For `COC(=O)C1CCC(=O)N1CN(C(C)=O)c1cccc(O)c1` (stereo unspecified), the GI50 is inactive: > 100 µM.

For `N#Cc1sc2c(c1OC(=O)c1ccccc1)c(=O)n(-c1ccccc1)c(=S)n2-c1ccccc1`, the GI50 was inactive: 27.4 µM.

In the case of `C[C@@]1(O)C2CC3CC1(c1ccccc1)CC(/C3=N/O)/C2=N\O` (stereo partly specified), the GI50 is inactive: > 100 µM.

As for `CN(C)c1ccc(/N=N/c2ccc3[nH]cnc3c2)cc1`, the GI50 was inactive: 33.2 µM.

With `CCOC(=O)NC(=S)NC(C)c1ccccc1` (stereo unspecified), the GI50 is inactive: > 100 µM.

Consider `CCOC(=O)NC(Nc1ccc([N+](=O)[O-])cc1)(C(F)(F)F)C(F)(F)F`, for which the GI50 is inactive: > 100 µM.

Take `COc1ccc(C2CC(c3cc4c(C)c(C(=O)c5ccccc5)oc4cc3O)=Nc3ccccc3S2)cc1OC` (stereo unspecified): the GI50 was inactive: > 100 µM.

Turning to `CCOC(=O)NC(=O)c1cn(CCN2CCN(C(=O)CNC(=O)CNC(=O)Cn3cc(C(=O)NC(=O)OCC)c(=O)[nH]c3=O)CC2)c(=O)[nH]c1=O`, the GI50 is inactive: > 100 µM.

`CC1(C)[C@@H]2C[C@H]1c1cnc(-c3ccccn3)cc1C2[C@@H]1c2cc(-c3ccccn3)ncc2[C@@H]2C[C@H]1C2(C)C` (stereo partly specified): the GI50 is inactive: 71.9 µM.

Take `CCOC(=O)/C=C1/C(CCCOCc2ccccc2)C2CCCC23CC2(CCN13)OCCO2` (stereo unspecified): the GI50 was inactive: 26.9 µM.

For `CC12CCC[C@@](C)(C(=O)OC3OC(CO)C(O)C(O)C3O)[C@H]1CCC13CC4CC(OC4(CO)[C@H]1O)[C@@H]23` (stereo partly specified), the GI50 is inactive: > 100 µM.

With `CC1CC[C@]2(C(=O)O)CCC3(COC(=O)/C=C\c4ccc(O)cc4)C(=CCC4[C@@]5(C)CC[C@H](O)C(C)(C)C5CC[C@]43C)[C@@H]2[C@H]1C` (stereo partly specified), the GI50 is inactive: 16.6 µM.

For `O=C(O)C1NCCc2c1[nH]c1ccccc21` (stereo unspecified), the GI50 was inactive: > 100 µM.

For the compound `CN1CC(=O)N(C)c2[nH]cnc2C1=O`, the GI50 is inactive: > 100 µM.

In the case of `CC(=O)Nc1ccc(-c2nc3ccccc3s2)cc1Br`, the GI50 was inactive: 55 µM.

Regarding `O=C(O)/C=C(/CC(=O)O)C(=O)O`, the GI50 was inactive: 25.7 µM.

As for `CCO[C@@H]1OC(=O)[C@](C)(C(C)=O)[C@@H]1C`, the GI50 is inactive: 52.7 µM.

For `NS(=O)(=O)c1ccc(CNc2nc(-c3cccs3)nc3ccc(I)cc23)cc1`, the GI50 is inactive: 13.4 µM.
